# Source: the supplement of paper PMC4166925
# ± gives the standard deviation of the averaged measurements. In all, about 33,000 sequences were measured (“E-score (dimensionless, -0.5 to 0.5)”: median about -0.049, highest 2% from about 0.37 on). Some of the results follow.
# Test system: T1, PmTbr T-box DNA-binding domain (GST fusion)
# T1 sequence: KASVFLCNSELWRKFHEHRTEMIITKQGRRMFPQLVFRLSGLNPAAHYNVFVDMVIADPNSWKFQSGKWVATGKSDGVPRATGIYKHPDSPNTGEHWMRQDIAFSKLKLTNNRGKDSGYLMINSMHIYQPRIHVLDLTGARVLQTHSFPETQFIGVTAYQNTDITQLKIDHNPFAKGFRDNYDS
# Assay: PBM E-score of 8-mer (E-score (dimensionless, -0.5 to 0.5)); Tbr is Tbrain of the sea star Patiria miniata (Pm) or the sea urchin Strongylocentrotus purpuratus (Sp); higher = stronger binding preference; most listed sequences are background and not binding sites
# Settings: the construct has about 5 more residues each side
# Outline: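 Each ungapped 8-mer received an enrichment E-score from the Universal PBM Analysis Suite, averaged over duplicate arrays. The proteins were Tbr T-box DNA-binding domains, covering the whole T-box plus about five flanking residues, fused to GST and expressed in BL21 E. coli at 20 °C before glutathione affinity purification. Universal Agilent oligonucleotide arrays were made double-stranded by primer extension and incubated with 200 nM protein in PBS (pH 7.5). The arrays were then scanned and quantified, and every 8-mer was scored from probe intensities.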
row,Sequence,PBM E-score of 8-mer
1,CCGTTCCA,0.0138 ± 0.0051
2,CGCAACTA,0.167 ± 0.0037
3,AGCTATTA,-0.0848 ± 0.081
4,ATAATTCA,0.129 ± 0.036
5,GAAGGCGC,0.271 ± 0.0057
6,GAGCCTAA,-0.074 ± 0.065
7,CGTTAACG,0.266 ± 0.015
8,CAAGAACC,-0.1413 ± 0.00053
9,TGCCGTAA,-0.185 ± 0.0069
10,AAAGACCG,-0.149 ± 0.032
11,CCGACCTA,-0.179 ± 0.0083
12,GAAACTGA,-0.0776 ± 0.023
13,ATCGAGAT,-0.0194 ± 0.029
14,GCACTCCC,0.0702 ± 0.12
15,TCGGTCAA,-0.0753 ± 0.01
16,CGTCGCTA,0.0903 ± 0.017
17,CGCCTTGA,0.153 ± 0.016
18,CTCCCCGA,-0.16 ± 0.011
19,ACATAAGT,0.119 ± 0.016
20,GATTAAGC,-0.115 ± 0.034
21,AAACTTCA,-0.047 ± 0.1
22,CAAATCTG,0.131 ± 0.044
23,AATTTAGC,0.0784 ± 0.11
24,AAAGTTCT,-0.147 ± 0.056
25,ACGGCGAT,-0.115 ± 0.06

row,Sequence,PBM E-score of 8-mer
1,CACTACAA,0.0388 ± 0.036
2,ACGCGACG,0.237 ± 0.016
3,CGACCTAA,-0.135 ± 0.037
4,CGAGTCTC,-0.153 ± 0.0017
5,GTTTATAA,-0.0711 ± 0.03
6,ACCCGTGC,0.0856 ± 0.025
7,CAAGATTG,0.165 ± 0.0046
8,CCTGCAGG,-0.11 ± 0.0062
9,CATAGTCA,-0.017 ± 0.036
10,CACCCCTC,0.278 ± 0.0062
11,AGAAGAGG,-0.155 ± 0.022
12,ATAACTAC,-0.184 ± 0.0098
13,GCCACCGC,-0.0625 ± 0.015
14,ATCGGTTA,-0.0435 ± 0.019
15,GAAGAAAA,0.00828 ± 0.14
16,CTTTATTC,-0.129 ± 0.012
17,CCCTGGCC,-0.186 ± 0.0043
18,CATAGGAC,-0.177 ± 0.025
19,CAGAACGA,-0.068 ± 0.014
20,AGATCGCC,0.118 ± 0.021
21,AGAAACCA,-0.162 ± 0.068
22,GGGGAAAA,-0.0423 ± 0.045
23,ATCCTAGC,0.115 ± 0.025
24,CGGCTGCA,-0.132 ± 0.04
25,GTTCTACA,-0.0213 ± 0.066

row,Sequence,PBM E-score of 8-mer
1,ACCTAAAC,0.216 ± 0.075
2,CCCATACA,-0.193 ± 0.039
3,ATGCCTGG,-0.292 ± 0.02
4,ACTTGCAT,-0.0498 ± 0.1
5,GCTACGTA,-0.187 ± 0.0032
6,ATTGCAGC,-0.0944 ± 0.071
7,ACAGCGGG,0.101 ± 0.014
8,CTTAACTA,0.00909 ± 0.057
9,ATCTTAAG,-0.0687 ± 0.01
10,CTAGTGAG,0.147 ± 0.021
11,CGTCTGAC,-0.0571 ± 0.042
12,CAGGTGGA,0.0502 ± 0.00076
13,TGTAACAA,0.158 ± 0.0033
14,ATTCTCAG,0.0465 ± 0.077
15,ATCAGAAA,-0.0057 ± 0.0071
16,AACGCCCC,0.242 ± 0.04
17,ACTTTCAT,0.0367 ± 0.14
18,AATAGGGC,-0.252 ± 0.022
19,AGCTGAGC,-0.174 ± 0.014
20,CTGCGATC,0.0258 ± 0.0016
21,AAAGGCAT,-0.0624 ± 0.02
22,AATCCTTG,-0.1258 ± 0.0011
23,GGAGGCGA,0.22 ± 0.015
24,TCGCCAAA,0.0695 ± 0.043
25,ATTTGCTG,-0.0673 ± 0.043

row,Sequence,PBM E-score of 8-mer
1,CCTCATTA,-0.242 ± 0.0051
2,AATATCAC,0.30788 ± 0.00011
3,CAGCGACC,-0.129 ± 0.2
4,AAGTCAAC,0.0939 ± 0.029
5,AGTTCTCG,0.197 ± 0.0035
6,ATACTTCA,-0.169 ± 0.0046
7,ACGGCTCT,-0.15 ± 0.033
8,ATCCCCGA,-0.194 ± 0.082
9,CAATAAGA,-0.203 ± 0.026
10,ATCTTAAA,-0.154 ± 0.073
11,CCTTGCTA,0.084 ± 0.032
12,GAGCCCCC,-0.199 ± 0.016
13,CAAGCGGA,-0.141 ± 0.0045
14,ATACAATG,0.0217 ± 0.0012
15,GGGGCACC,-0.0842 ± 0.028
16,AACATGGC,-0.194 ± 0.054
17,AATGGGAA,-0.314 ± 0.005
18,AAGAAGAT,-0.0983 ± 0.045
19,CGGTGAAA,-0.0916 ± 0.099
20,AAAGTAAA,-0.223 ± 0.024
21,ATTGCATC,-0.201 ± 0.029
22,ATGAGTAA,-0.0606 ± 0.02
23,AGAAAGTG,0.314 ± 0.05
24,CTTTTCCC,-0.109 ± 0.06
25,ATCACAAC,0.299 ± 0.0047

row,Sequence,PBM E-score of 8-mer
1,GTACATAC,-0.0822 ± 0.037
2,TCTGCAAA,-0.106 ± 0.0089
3,AGCGCCGA,0.178 ± 0.037
4,AGAGCCTA,-0.322 ± 0.024
5,GCAATAGA,-0.114 ± 0.035
6,AACACGTT,0.386 ± 0.014
7,AAGAAATA,0.157 ± 0.026
8,ATGCTATA,-0.182 ± 0.01
9,CTCCTTTA,0.00851 ± 0.0065
10,GCTCCACA,-0.0189 ± 0.02
11,GAAAAAGC,-0.134 ± 0.01
12,CAACTGAC,0.191 ± 0.039
13,ACGAAAAG,-0.162 ± 0.13
14,GATCGGAC,-0.176 ± 0.04
15,GTTACCCA,0.0913 ± 0.06
16,ATATGCAC,-0.124 ± 0.038
17,AGGTGGTC,-0.0579 ± 0.012
18,AAGTATCA,0.149 ± 0.091
19,ATCGTTGG,0.06 ± 0.07
20,ACCTGAGG,0.0955 ± 0.086
21,GCGATAGA,0.243 ± 0.013
22,AAGATTAC,-0.178 ± 0.0038
23,ACACGCGG,0.165 ± 0.0052
24,GCTACACC,0.207 ± 0.026
25,ATATAGCA,0.141 ± 0.013

row,Sequence,PBM E-score of 8-mer
1,CAAACCAA,-0.248 ± 0.099
2,ACATGTAG,-0.13 ± 0.065
3,GCCTGGAA,-0.232 ± 0.045
4,CGCTACCC,0.142 ± 0.027
5,CAACACTG,0.289 ± 0.0071
6,CGTTCAGA,-0.201 ± 0.11
7,AGTACAAA,-0.0892 ± 0.035
8,CGGCGATA,0.0663 ± 0.038
9,AAACTGCC,0.0053 ± 0.013
10,CGATAACA,0.25 ± 0.029
11,ATGATGCA,0.102 ± 0.023
12,ATTGCATA,-0.0736 ± 0.052
13,AACACGAG,0.132 ± 0.0066
14,CCGCAGAG,-0.307 ± 0.087
15,ACACAAAT,-0.0735 ± 0.016
16,AAGCATGG,-0.154 ± 0.029
17,ACTGATAT,0.106 ± 0.019
18,AGCTAACC,-0.261 ± 0.041
19,ATGAGGAG,-0.0971 ± 0.051
20,AGAAGCCA,-0.227 ± 0.072
21,ATCGATGC,-0.0132 ± 0.054
22,CCCGTCAC,0.368 ± 0.03
23,GACGATAA,0.0373 ± 0.0056
24,AGCGGCAT,-0.046 ± 0.0046
25,CCGACTAG,0.08 ± 0.023

row,Sequence,PBM E-score of 8-mer
1,AAATTTAT,-0.0896 ± 0.094
2,CTTAATGA,-0.149 ± 0.099
3,TTCACCAA,-0.0625 ± 0.074
4,GTCCAGGA,-0.195 ± 0.049
5,GCATTTCC,-0.0797 ± 0.0039
6,GATCTTCC,-0.0847 ± 0.04
7,AATCACGG,0.0105 ± 0.017
8,AGTATCAC,0.277 ± 0.055
9,ATGCGGAA,-0.0719 ± 0.0072
10,CCACACGG,0.0921 ± 0.0026
11,GTCGTACA,-0.208 ± 0.038
12,CGGCACAG,0.103 ± 0.071
13,GAGATTTA,-0.0795 ± 0.052
14,AACACTAC,0.241 ± 0.063
15,AGAATCGC,0.176 ± 0.0087
16,CACTATGC,0.129 ± 0.027
17,CCGCGAAA,0.305 ± 0.027
18,CAAAGCTA,-0.107 ± 0.006
19,ACGCCAAA,0.213 ± 0.0076
20,AGCCGTGC,-0.113 ± 0.04
21,ACTTAATA,0.02 ± 0.1
22,GGATTGAC,0.0766 ± 0.0056
23,ATACCGGC,-0.253 ± 0.04
24,CTGTTTAA,0.00696 ± 0.072
25,AATCGCAA,0.251 ± 0.028

row,Sequence,PBM E-score of 8-mer
1,AGTACGGG,-0.248 ± 0.013
2,TAAGCTAA,-0.272 ± 0.033
3,CCTTCGTA,0.139 ± 0.025
4,CTTTCGGC,0.0207 ± 0.014
5,CACATCTG,0.283 ± 0.0036
6,GTCGCCAC,0.326 ± 0.0074
7,AAGTAAAC,0.0187 ± 0.034
8,ATGGATAC,-0.4 ± 0.038
9,AAACAAAG,0.105 ± 0.095
10,TCTGGTAA,-0.00932 ± 0.047
11,AGGCACCG,-0.025 ± 0.035
12,GAGAGGCA,-0.202 ± 0.058
13,CCACACCA,0.29 ± 0.033
14,CGATAGTC,0.0501 ± 0.037
15,CGTGGCAA,0.122 ± 0.044
16,TCATTTAA,-0.282 ± 0.061
17,GTACCGAC,-0.0485 ± 0.12
18,AGAACTCT,-0.211 ± 0.067
19,ACGAGTGC,0.191 ± 0.044
20,ACTAAACC,-0.0721 ± 0.022
21,TATAACGA,-0.13 ± 0.019
22,ATCGGCTA,-0.0955 ± 0.062
23,CCCACCTA,0.184 ± 0.016
24,CCGTTGAA,-0.251 ± 0.11
25,CAGAATCC,-0.115 ± 0.042

row,Sequence,PBM E-score of 8-mer
1,CATATAGC,-0.188 ± 0.077
2,ATGGTTAC,-0.265 ± 0.029
3,CGCCACCA,0.269 ± 0.004
4,GCGTAACC,-0.00498 ± 0.032
5,ACAGTAAA,-0.2762 ± 0.0019
6,AAGGGCAG,-0.149 ± 0.0087
7,CGACTTAC,-0.00392 ± 0.086
8,GGATTGGA,-0.185 ± 0.014
9,GAGTGACC,-0.0846 ± 0.0063
10,GGCAATTA,0.111 ± 0.051
11,CTGCAGGA,-0.155 ± 0.032
12,CATACACG,-0.121 ± 0.1
13,GTAAGCGA,0.0395 ± 0.019
14,CCATAAAC,-0.115 ± 0.089
15,CGAGCTCA,-0.0103 ± 0.029
16,CAGGTAAG,0.0622 ± 0.0032
17,AGGCGGTA,0.0799 ± 0.026
18,AATAGCGT,0.104 ± 0.015
19,TCCGAGAA,0.0357 ± 0.047
